The text below walks through data of ChEMBL document CHEMBL4888484, “Replenishing the malaria drug discovery pipeline: Screening and hit evaluation of the MMV Hit Generation Library 1 (HGL1) against asexual blood stage Plasmodium falciparum ,using a nano luciferase reporter read-out” (2022).

Each structure is given as a SMILES string. Among all 150,000 compounds or so, about 540 (0.36%) showed an effect of 50% or more. The list shows a part of the results.

For orientation: % Inhibition means the relative decrease from the control value, in per cent.

In this test the test system is Plasmodium falciparum. Description: Primary screen in NF54 nanoGlo assay, in single point, at 2uM, 72h; a lower Z score goes with more inhibition. The class given is functional, Erythrocyte. The following applies: timepoint 72 hour.
As for `Cc1nn(C(C)(C)C)cc1[C@H](C)NC(=O)Nc1ccc2c(c1)N(C)CCO2`, the “% Inhibition” value is listed as -10% and the Z score was 1.3.
For `COc1ccccc1CN(C(=O)NCc1nc(C(N)=O)no1)C1CCCC1`, the “% Inhibition” value was 7% and the Z score is given as -0.9.
Take `CCc1nc(C)sc1CNC(=O)Cc1nc2nc(C)cc(O)n2n1`: the “% Inhibition” value is -8% and the Z score amounted to 0.96.
Consider `COc1cccc(CN2CCO[C@@H](CNC(C)=O)C2)n1`, for which the “% Inhibition” value was determined as 5% and the Z score was -0.97.
For `Cc1nnc([C@H]2CCN(Cc3cnc4ccccc4c3)C2)o1` the same measures were -1% and 0.17.
In the case of `Cn1cc(C(=O)N2CC=C(c3ccc(Cl)c(C(F)(F)F)c3)CC2)nn1`, the “% Inhibition” value came out at 2% and the Z score is given as -0.35.
For `CN1CC[C@H](CN(C)S(=O)(=O)Cc2ccccc2)C1(C)C`, in that order: -11% and 1.33.
For `Cc1ncoc1-c1nnc(-c2cn(C)nn2)o1` the same measures were -11% and 1.45.
For `CCN(C)C(=O)c1cc(C)cc(Br)c1`, in that order: -10% and 1.25.
Take `O=S(=O)(CC1CC1)N[C@H]1CC12CCCCC2`: the “% Inhibition” value came out at 7% and the Z score is -1.3.
For `C[C@H]1CN(c2cccc(C(F)(F)F)n2)CCS1(=O)=O`, in that order: 0% and 0.05.
For `Cc1noc(-c2cccnc2NCc2ccccn2)n1`, in that order: 8% and -0.91.
For `C[C@H](NCCCN1CCCC1=O)c1ccc2c(c1)C(C)(C)C(=O)N2` the same measures were -4% and 0.49.
For the compound `C[C@@H](c1ccc(C(=O)NCc2cccc(Cl)c2)o1)N1CCCCC1`, the “% Inhibition” value is recorded as -1% and the Z score is 0.24.
`O=C(Nc1ccc(N2CCOCC2)cc1)c1nn(-c2ccccc2C(F)(F)F)cc1O`: the “% Inhibition” value was -8% and the Z score was 0.71.
For `CCS(=O)(=O)N(C)Cc1cccc(OC(C)C)c1`, the “% Inhibition” value is -7% and the Z score is given as 0.84.
For the compound `CC(C)N(CCn1ccnc1-c1ccoc1)C(C)C`, the “% Inhibition” value was found to be 14% and the Z score is on record as -2.57.
For `CN(C)C(=O)CNC(=O)Nc1ccc(Cl)cc1` the same measures were 7% and -0.8.
For `Cc1cc(C)c2c(C)c(C(=O)N3CCOC34CCCCC4)oc2c1` the same measures were 1% and -0.11.
For `COc1ccc(CNC(=O)C(=O)NC(C)C)cc1`, in that order: -13% and 2.44.
As for `C[C@H](NCCc1cccc(C(=O)N(C)C)c1)c1cc2ccccc2o1`, the “% Inhibition” value is listed as -7% and the Z score is 0.99.
For `Cc1cc(-c2nc([C@]3(c4ccc(F)cc4)CCOC3)no2)[nH]n1`, the “% Inhibition” value is given as -9% and the Z score is given as 1.08.
On to `CCN1C(=O)c2cc(NC(=O)CCC3CCCC3)ccc2Oc2ccccc21`, for which the “% Inhibition” value is recorded as -12% and the Z score is 1.41.
For `CCCCS(=O)(=O)NCC1(c2ccccn2)CC1` the same measures were -21% and 2.76.
As to `CN(CCNC(=O)C1CCN(c2ccc(-c3ccccc3)nn2)CC1)C1CCCCC1`, the “% Inhibition” value is 8% and the Z score was -0.75.
For the compound `Cc1ccc(C(=O)NCc2cccnc2-n2cnc3ccccc32)c(O)c1`, the “% Inhibition” value came out at 14% and the Z score is -1.79.
For `Cc1cc2c(cc(C(=O)NCc3ccccc3)n2CCCOc2ccccc2)o1`, in that order: -12% and 1.66.
In the case of `O[C@@H]1CCN(C2CCN(c3cccc(-c4ccc(Cl)cc4)c3)CC2)C1`, the “% Inhibition” value was -7% and the Z score is listed as 1.25.
`CC(C)CN(Cc1cc(Cl)ccc1OS(=O)(=O)c1ccc(F)cc1)C(=O)c1ccccc1Cl`: the “% Inhibition” value is given as 11% and the Z score is given as -1.49.
For `CC(C)CN1CCN(C(=O)[C@@H]2C[C@H](Oc3ccccc3)CN2C2CCOCC2)CC1`, in that order: -10% and 1.88.
Take `COc1cc(CC(=O)Nc2scnc2C)ccc1Cl`: the “% Inhibition” value is on record as -5% and the Z score was 0.62.
Turning to `O=C1CC[C@@]2(CCCO2)CCN1Cc1ccc2ccccc2c1`, the “% Inhibition” value is given as -11% and the Z score amounted to 2.05.
For the compound `CCc1ncc(C(=O)N(C)[C@@H](C)c2cc(-c3ccccc3)[nH]n2)cn1`, the “% Inhibition” value is on record as -5% and the Z score came to 0.72.
For `CCc1noc(C(C(C)CC)N2Cc3ccccc3C2=O)n1` (stereo unspecified) the same measures were 0% and -0.05.
For `Cc1ccc(-c2nc3ccccn3c2Nc2ccc3c(c2)OCCO3)o1`, in that order: -17% and 1.7.
For `COc1cccc(CNC(C)(C)C)c1OCC(=O)NC(C)(C)C`, in that order: 37% and -4.93.
Turning to `Cc1ccccc1NC(=O)c1cnn2c3c(cnc12)CCCCCC3`, the “% Inhibition” value stood at 30% and the Z score is listed as -4.32.
`COc1ccnc(CN2CCN(S(C)(=O)=O)c3ccccc3C2)c1`: the “% Inhibition” value was -6% and the Z score was 0.56.
For `Cc1ccsc1-c1nnc(NC(=O)Cc2ccc(Cl)cc2)s1` the same measures were -1% and 0.1.
Take `CC(C)N1CCO[C@@H](CC(=O)N(C)Cc2ccsc2)C1`: the “% Inhibition” value is recorded as -10% and the Z score came out at 1.13.
For `COCc1nc(C(=O)N(CC(F)(F)F)c2ccccn2)cs1`, in that order: -14% and 1.73.
For `Cc1ncccc1NC(=O)C(=O)N(Cc1ccccc1F)C1CCC1` the same measures were -2% and 0.23.
For `O=C(Cn1ccc2ccccc21)N1CCC(N2C(=O)COC2=O)CC1`, in that order: 2% and -0.46.
